Assay results as given in the antibiotic and cytotoxicity screens of Wong et al. (2023).
The other results are listed elsewhere or left out.

Experiments:
HSkMC = human skeletal muscle cells; assay: cytotoxicity call (relative viability < 0.9); settings: 10 µM
S. aureus RN4220 = assay: growth inhibition call (relative growth <= 0.2); settings: 50 µM

Row | SMILES | cytotoxicity call (HSkMC) | growth inhibition call (S. aureus RN4220)
1 | COc1ccc(CN(C)C[C@@H]2OCCCC[C@H](C)Oc3ccc(NC(=O)Nc4ccc(F)cc4)cc3C(=O)N([C@@H](C)CO)C[C@H]2C)cc1 | inactive | inactive
2 | COc1ccc(C#Cc2ccc3c(c2)O[C@H](CN(C)C(=O)c2ccccn2)[C@@H](C)CN([C@@H](C)CO)S3(=O)=O)cc1 | inactive | inactive
3 | CCO[C@H]1[C@H]2CC[C@@H]1N(C(=O)N(C)C)CCO2 | inactive | inactive
4 | Cc1ccc(S(=O)(=O)N(C)C[C@@H]2Oc3ccc(NS(=O)(=O)c4ccccc4)cc3CC(=O)N([C@H](C)CO)C[C@H]2C)cc1 | inactive | inactive
5 | C[C@@H]1CCCCO[C@@H](CN(C)C(=O)NC2CCCCC2)[C@@H](C)CN([C@H](C)CO)C(=O)c2cc(NC(=O)Nc3ccc(F)cc3)ccc2O1 | inactive | inactive
6 | Cc1noc(C)c1NC(=O)N(C)C[C@@H]1OCCCC[C@@H](C)Oc2ccc(NS(=O)(=O)c3ccc(F)cc3)cc2C(=O)N([C@H](C)CO)C[C@@H]1C | inactive | inactive
7 | CO[C@@H]1CN(C)C(=O)c2ccc(NS(=O)(=O)CC(F)(F)F)cc2OC[C@@H](C)N(Cc2nccs2)C[C@H]1C | inactive | inactive
8 | C[C@@H]1CN([C@H](C)CO)C(=O)c2cc(NC(=O)CCC(F)(F)F)ccc2O[C@H]1CN(C)Cc1ccc(C(=O)Nc2ccccc2N)cc1 | inactive | inactive
9 | C[C@@H]1CN([C@@H](C)CO)C(=O)CCCn2cc(nn2)CO[C@@H]1CN(C)S(=O)(=O)c1ccc(-n2cccn2)cc1 | inactive | inactive
10 | C[C@@H]1CN([C@@H](C)CO)C(=O)Cc2cc(NC(=O)Nc3cccc4ccccc34)ccc2O[C@H]1CN(C)Cc1ccc(-c2ccccc2)cc1 | inactive | inactive
11 | NCc1ccc(S(=O)(=O)O)cc1 | inactive | inactive
12 | C[C@@H]1O[C@@H](O[C@@H]2C=C(CO)[C@H]3[C@H](O[C@@H]4O[C@H](CO)[C@@H](O)[C@H](O)[C@H]4O)OC=C[C@H]32)[C@H](O)[C@H](O)[C@H]1OC(=O)/C=C/c1ccccc1 | inactive | inactive
13 | COc1ccc(CN(C)C[C@@H]2Oc3ccc(NC(=O)CCN4CCOCC4)cc3C(=O)N([C@@H](C)CO)C[C@H]2C)cc1 | inactive | inactive
14 | C[C@@H]1CN([C@@H](C)CO)C(=O)c2cc(NC(=O)Nc3ccccc3)ccc2O[C@@H](C)CCCCO[C@H]1CN(C)Cc1ccccc1 | inactive | inactive
15 | C[C@H]1CN([C@@H](C)CO)C(=O)c2cc(NS(=O)(=O)c3ccc(F)cc3)ccc2O[C@@H]1CN(C)C(=O)Nc1ccc(C(F)(F)F)cc1 | inactive | inactive
16 | C[C@H](CO)N1C[C@H](C)[C@H](CN(C)C(=O)Nc2cccc3ccccc23)Oc2ccc(NC(=O)NC3CCCCC3)cc2CC1=O | inactive | inactive
17 | COc1cc2c(cc1OC)CN(C(=O)[C@H]1[C@@H]3C(=O)O[C@@H](c4ccccc4)[C@@H](c4ccccc4)N3[C@@H](c3ccccc3OCCO)[C@]13C(=O)Nc1ccc(C#CC4(O)CCCCCC4)cc13)CC2 | inactive | inactive
18 | CN(C)CCCNC(=O)C[C@@H]1C=C[C@H](NS(=O)(=O)c2ccccc2)[C@@H](CO)O1 | inactive | inactive
19 | C[C@@H]1CN([C@H](C)CO)C(=O)Cc2cc(NC(=O)Nc3ccc(C(F)(F)F)cc3)ccc2O[C@H]1CN(C)Cc1ccncc1 | inactive | inactive
20 | COCc1cn(CC[C@@H]2CC[C@H](NC(=O)CCN3CCCCC3)[C@@H](CO)O2)nn1 | inactive | inactive
21 | C[C@@H]1CN([C@@H](C)CO)C(=O)c2cc(NC(=O)CCN3CCOCC3)ccc2O[C@H]1CN(C)C(=O)Nc1ccc(F)cc1 | inactive | inactive
22 | O=C(c1ccccc1F)N1c2ccccc2Sc2ccccc21 | inactive | inactive
23 | Nc1c[nH]ccc1=O | inactive | inactive
24 | Cc1ccc(S(=O)(=O)Nc2ccc3c(c2)C(=O)N([C@H](C)CO)C[C@H](C)[C@H](CN(C)C(=O)Nc2c(C)noc2C)OCCCC[C@@H](C)O3)cc1 | inactive | inactive
25 | O=C(CCCCCCC(=O)Nc1ccc([C@H]2O[C@H](CSc3nc(-c4ccccc4)c(-c4ccccc4)o3)C[C@H](c3ccc(NC(=O)CCCCCCC(=O)NO)cc3)O2)cc1)NO | inactive | inactive
26 | C[C@H]1CN([C@@H](C)CO)C(=O)c2cc(NS(=O)(=O)c3ccccc3)ccc2O[C@@H]1CN(C)Cc1ccncc1 | inactive | inactive
